The entries are a selection whose mix differs from that of the whole data set. The list includes weakly bound sequences.
Legend:
Assay in all cases: protein-binding microarray (PBM)
Conditions in all cases: PBM: ~300 nM protein, 6 mM HEPES pH 7.8, 80 mM KCl, 0.5 mM EDTA, 0.5 mM EGTA, 6% glycerol, 35 ng/ul poly-dIdC, 1% milk, 1 h, room temperature; Ap Aiptasia and Nv Nematostella (sea anemones) / Co Capsaspora / Aq Amphimedon (sponge) / Dm Drosophila / Hu human; RHD is the Rel homology domain; high values mean tight binding; most listed sequences are background and not binding sites; double strand, one strand shown
GST-Ap-NF-kB RHD = molecular target: T1, GST-Ap-NF-kB RHD (UniProt A0A913YAJ5)
T1 sequence: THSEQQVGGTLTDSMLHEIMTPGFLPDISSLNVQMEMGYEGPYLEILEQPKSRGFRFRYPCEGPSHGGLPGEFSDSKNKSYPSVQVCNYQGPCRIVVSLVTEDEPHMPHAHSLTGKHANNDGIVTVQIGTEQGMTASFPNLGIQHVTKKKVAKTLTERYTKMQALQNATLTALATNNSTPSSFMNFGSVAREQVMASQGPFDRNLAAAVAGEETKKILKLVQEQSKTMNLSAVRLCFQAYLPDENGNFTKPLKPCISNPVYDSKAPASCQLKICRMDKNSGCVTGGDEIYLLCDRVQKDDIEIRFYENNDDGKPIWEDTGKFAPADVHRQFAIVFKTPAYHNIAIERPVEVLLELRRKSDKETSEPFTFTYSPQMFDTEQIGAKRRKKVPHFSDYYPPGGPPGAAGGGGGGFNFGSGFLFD

[1] = molecular target: T2, GST-Nv-NF-kB (Cys allele) (UniProt E5G601)
T2 sequence: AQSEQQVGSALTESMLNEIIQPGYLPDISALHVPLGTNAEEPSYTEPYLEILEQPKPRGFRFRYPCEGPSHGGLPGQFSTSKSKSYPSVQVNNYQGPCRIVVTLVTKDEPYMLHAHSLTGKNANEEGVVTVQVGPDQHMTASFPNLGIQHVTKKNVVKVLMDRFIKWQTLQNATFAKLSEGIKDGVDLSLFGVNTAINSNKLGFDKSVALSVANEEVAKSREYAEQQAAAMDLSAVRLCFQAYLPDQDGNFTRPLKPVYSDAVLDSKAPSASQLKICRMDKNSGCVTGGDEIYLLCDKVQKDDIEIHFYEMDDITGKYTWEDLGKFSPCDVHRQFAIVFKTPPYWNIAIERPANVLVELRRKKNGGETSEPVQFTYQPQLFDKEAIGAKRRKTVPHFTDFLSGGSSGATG

GST-Co-NF-kB = molecular target: T3, GST-Co-NF-kB (UniProt F1ARL5)
T3 sequence: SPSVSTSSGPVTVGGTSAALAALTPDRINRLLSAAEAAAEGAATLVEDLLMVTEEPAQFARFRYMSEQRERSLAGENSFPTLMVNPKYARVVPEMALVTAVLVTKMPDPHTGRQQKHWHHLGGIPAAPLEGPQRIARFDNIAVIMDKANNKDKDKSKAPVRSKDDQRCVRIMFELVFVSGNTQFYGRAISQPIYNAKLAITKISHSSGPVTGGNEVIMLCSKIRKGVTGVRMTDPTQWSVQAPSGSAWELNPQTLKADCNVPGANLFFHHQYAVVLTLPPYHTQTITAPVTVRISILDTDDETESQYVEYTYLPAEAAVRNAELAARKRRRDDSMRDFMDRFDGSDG

GST-Dm-Relish = molecular target: T4, GST-Dm-Relish (UniProt Q94527)
T4 sequence: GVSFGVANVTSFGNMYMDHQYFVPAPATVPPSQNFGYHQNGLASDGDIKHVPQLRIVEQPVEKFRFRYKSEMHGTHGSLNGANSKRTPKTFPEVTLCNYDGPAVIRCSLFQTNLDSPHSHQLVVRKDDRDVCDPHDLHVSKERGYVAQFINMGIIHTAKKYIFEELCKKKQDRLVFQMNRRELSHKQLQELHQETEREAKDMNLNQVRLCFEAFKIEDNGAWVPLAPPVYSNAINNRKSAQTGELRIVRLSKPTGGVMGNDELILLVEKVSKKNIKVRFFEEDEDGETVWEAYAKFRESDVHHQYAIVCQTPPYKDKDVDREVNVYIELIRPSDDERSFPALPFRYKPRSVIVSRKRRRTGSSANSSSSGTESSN

GST-Aq-NF-kB = molecular target: T5, GST-Aq-NF-kB (UniProt A9Y5G7)
T5 sequence: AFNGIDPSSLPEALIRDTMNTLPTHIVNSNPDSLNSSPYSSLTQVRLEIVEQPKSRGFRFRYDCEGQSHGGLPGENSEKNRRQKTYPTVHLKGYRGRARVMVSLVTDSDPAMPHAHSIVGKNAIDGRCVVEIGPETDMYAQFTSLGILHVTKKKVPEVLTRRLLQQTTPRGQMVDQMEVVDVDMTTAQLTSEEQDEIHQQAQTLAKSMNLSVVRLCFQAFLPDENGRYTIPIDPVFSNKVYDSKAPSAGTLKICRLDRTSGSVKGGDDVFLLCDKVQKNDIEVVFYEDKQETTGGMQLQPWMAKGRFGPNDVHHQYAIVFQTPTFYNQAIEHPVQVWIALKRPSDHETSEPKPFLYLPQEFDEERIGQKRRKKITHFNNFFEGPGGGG

Row | Sequence | binding signal (GST-Ap-NF-kB RHD) [z-score] | binding signal [1] [z-score] | binding signal (GST-Co-NF-kB) [z-score] | binding signal (GST-Dm-Relish) [z-score] | binding signal (GST-Aq-NF-kB) [z-score]
1 | CCGATTAACATCAGGTCGGAGCCTGATGTTAATCGGGTCTTGATTCGCTTGACGCTGCTG | -0.778 | 0.297 | -1 | -0.335 | -0.72
2 | CCGATTAACATCAGGCTGTAGAGTGATGTTAATCGGGTCTTGATTCGCTTGACGCTGCTG | 0.0504 | 0.0828 | -0.211 | 0.00098 | -0.0854
3 | CCGATTAACATCAGCCGGTTCGATGATGTTAATCGGGTCTTGATTCGCTTGACGCTGCTG | -0.138 | -0.791 | -1.03 | -0.817 | -0.411
4 | CCGATTAACATCACGTAACTCCATGATGTTAATCGGGTCTTGATTCGCTTGACGCTGCTG | 0.0524 | -0.0919 | -0.0876 | 0.143 | -0.162
5 | CCGATTAACATCATTTGTGCGCCTGATGTTAATCGGGTCTTGATTCGCTTGACGCTGCTG | -0.303 | 0.15 | -0.311 | 0.109 | -0.109
6 | CCGATTAACATCAAGTCCAAGTCTGATGTTAATCGGGTCTTGATTCGCTTGACGCTGCTG | -0.397 | 0.105 | -0.0145 | -0.681 | -0.561
7 | CCGATTAACATCAATTTCGCGTTTGATGTTAATCGGGTCTTGATTCGCTTGACGCTGCTG | -0.647 | -0.497 | -0.247 | -0.359 | -0.589
8 | CCGATTAACATCAAATCCTCCTATGATGTTAATCGGGTCTTGATTCGCTTGACGCTGCTG | 0.149 | 0.326 | 0.128 | -0.43 | -0.218
9 | CCGATTAACATCAATAGTTGTACTGATGTTAATCGGGTCTTGATTCGCTTGACGCTGCTG | -0.932 | -0.908 | -0.158 | 0.502 | -0.467
10 | CCGATTAACATCATTAAATCTCATGATGTTAATCGGGTCTTGATTCGCTTGACGCTGCTG | -0.43 | -0.0899 | -0.708 | -0.276 | -0.464
11 | CCGATTAACATCACTGCGTCAAATGATGTTAATCGGGTCTTGATTCGCTTGACGCTGCTG | -0.324 | -0.504 | -0.596 | -0.247 | -0.624
12 | CCGATTAACATCACTTGATAATCTGATGTTAATCGGGTCTTGATTCGCTTGACGCTGCTG | -0.732 | 0.0686 | -0.188 | -0.425 | -0.501
13 | CCGATTAACATCACTAAAGTGTGTGATGTTAATCGGGTCTTGATTCGCTTGACGCTGCTG | -0.127 | 0.289 | -0.0283 | 0.571 | -0.445
14 | CCGATTAACATCAGCTCTGGAACTGATGTTAATCGGGTCTTGATTCGCTTGACGCTGCTG | -0.398 | -0.89 | -0.609 | -1.08 | -0.502
15 | CCGATTAACATCAGATCACCACATGATGTTAATCGGGTCTTGATTCGCTTGACGCTGCTG | 0.0198 | -0.549 | 0.636 | -0.219 | -0.247
16 | CCGATTAACATCATGGCTGTATGTGATGTTAATCGGGTCTTGATTCGCTTGACGCTGCTG | -0.164 | 0.143 | 0.499 | 0.486 | -0.428
17 | CCGATTAACATCAAGGAATTACCTGATGTTAATCGGGTCTTGATTCGCTTGACGCTGCTG | 1.08 | 2.06 | -0.0422 | 5.14 | 3.3
18 | CCGATTAACATCACTGTCGCGGATGATGTTAATCGGGTCTTGATTCGCTTGACGCTGCTG | 0.171 | 0.0728 | -0.0474 | -0.179 | -0.507
19 | CCGATTAACATCAGCGTGCGACGTGATGTTAATCGGGTCTTGATTCGCTTGACGCTGCTG | -0.422 | -0.479 | -0.21 | -0.096 | -0.387
20 | CCGATTAACATCAAAGGCGGCTCTGATGTTAATCGGGTCTTGATTCGCTTGACGCTGCTG | 0.25 | -0.498 | -1.26 | -1.13 | -0.464
21 | CCGATTAACATCACCTTAATGCCTGATGTTAATCGGGTCTTGATTCGCTTGACGCTGCTG | 0.53 | -0.445 | 0.264 | 0.265 | 0.581
22 | CCGATTAACATCACTGAAATTCCTGATGTTAATCGGGTCTTGATTCGCTTGACGCTGCTG | 0.248 | 0.462 | 0.104 | 0.553 | 0.585
23 | CCGATTAACATCATAAAATTCCATGATGTTAATCGGGTCTTGATTCGCTTGACGCTGCTG | -0.287 | 0.391 | -0.35 | 1.32 | 1.26
24 | CCGATTAACATCACAGAGAACCTTGATGTTAATCGGGTCTTGATTCGCTTGACGCTGCTG | 0.00903 | -0.152 | 0.148 | 0.503 | -0.204
25 | CCGATTAACATCAACGTTCCGCCTGATGTTAATCGGGTCTTGATTCGCTTGACGCTGCTG | -0.451 | -0.183 | -0.871 | 0.113 | -0.236
